B1: LINE1-mini (parent)
chain: GGCAGAGCUCAACACAGCGUGGCAAAGUGGCUGUGGCUAGACUGCC

Read counts are not given, so values of variants with three or more changes are uncertain.

In this data set the parent is B1. In words: self-cleavage, relative activity (ratio to wild type); higher = more cleavage; in vitro, sequencing; the parent is a self-cleaving ribozyme.
Regarding C8G G33U G40A, the self-cleavage is 0.03.
As for U9G G17U U28A C31G G40A, the figure is 0.03; as for A14U U28C G35U, 0.03.
To G27C G35A C45A belongs 0.09; to A14U G19C A25C G27A, 0.1.
As for G2A C3G A6C G21A, the figure is 0.36; as for G2U C10U C37A, 0.03.
Consider A6C G19A G33C, for which the self-cleavage is 0.35.
As for A14C G36A G44A C46A, the figure is 0.03; as for A6C C10A G19U C37U C42U G44U, 0.01.
To C13A U32A C37U belongs 0.09.
As for A4C G5C G29A, the figure is 0.09.
On to A4G C15A G21A, for which the self-cleavage turned out to be 0.03.
To G1U A11G G21C A26U C31U G36C belongs 0; to C15U A25U A26U U28C C31U, 0.04; to G2C G5A G17C G30U, 0.05.
In the case of G5A G22A G27A G30C A41U, the self-cleavage came out at 0.74.
With G1A A4G G5C C15G G27C C46G, the self-cleavage amounted to 0.02.
As for C13U G33C C45G, the figure is 0.01; as for C3U C10A A12G C13G, 0.03; as for G5U G29U A41U, 0.06.
In the case of G36U C37A A39C, the self-cleavage was 0.48.
As for C8G C10U G17U C23U G35U G44C, the figure is 0.03.
As for G5C A6G C8U U32G, the figure is 0.03; as for C13U G17A G44C, 0.05; as for U9G C15A G22A U32A, 0.03.
To G5U C10U A26U belongs 0.03.
Take G5A C23G G30A: the self-cleavage was found to be 0.13.
As for U9G C13U G17A G36A G40C G44C, the figure is 0.16; as for A6G C23A A41C, 0.33; as for G2U G7C C10U C13A G21C, 0.01.
As for A12U G17C C23A G29U, the figure is 0; as for C3G G17A G44C, 0.58.
To G2U C31A G33U belongs 0.1; to G5U C10A U20A G40A, 0.04; to G2A A11U C13A G19U G35C, 0.04.
With C13U C23A G40C, the self-cleavage was 0.02.
As for G2U A6U G36U C45G, the figure is 0.02.
To A6C C15A G17U G19C U20G belongs 0.01.
As for A11U G19A G27A U28A U38A G40C C45G, the figure is 0.01; as for G1C C23A G44C, 0.26.
For G1U G29C G35C, the self-cleavage was found to be 0.05.
To G5U G36A A41U belongs 0.09.
As for G1U G21U A25C G29A, the figure is 1.25; as for G40A C42U C45U, 0.16.
On to C13A A25U G30U, for which the self-cleavage was 0.06.
As for A12C C37A C42G, the figure is 0.01; as for C15A G22C C37U, 0.09; as for G7U A39C C45U, 0.11.
Turning to G5U C18G G27C C31G G33U, the self-cleavage amounted to 0.04.
As for A11G C31A A41U, the figure is 0; as for A4C G36A C42A, 0.26.
To A25U U28C C45A belongs 0.26.
To C18U G19C G22U G27U belongs 0.44; to C10G A11C G30A, 0.03; to G7C C18G C23G U32A, 0.03.
Turning to C23A G29U U34C, the self-cleavage was 0.58.
To U20G G27U C31G G44U belongs 0.02.
To G1A A4G C8U A12U C13U U28G belongs 0.04; to G5U G19U A24C, 0.04.
To A6U C15U A25G G30U belongs 0.06; to C3A U9G A12U U32C G35A, 0.47; to C8G G17U A24G C46U, 0.02.
In the case of G19U G36C C37U G40U, the self-cleavage came out at 0.1.
As for A6U C10A G33U U38A, the figure is 0.02; as for A11G C18U C46A, 0.09.
To G5C G36C C37A C46U belongs 0.05.
As for G7A C31U U38C A39G C42G, the figure is 0.06; as for A11U C18U U28C U38C A39U G44A, 0.01; as for A4C C18U C23G U32A C37U, 0.09.
For A14U C15G A16C C31U, the self-cleavage was found to be 0.01.
As for C3A G19A G21A C23U U43C, the figure is 0.44.
Regarding G1A G2C C18U, the self-cleavage was 0.04.
With G7U U20A C42A, the self-cleavage stood at 0.06.
C10A C18U G35C: the self-cleavage turned out to be 0.02.
To G2A A16U G22A G27C C42A C45U belongs 0.03; to G2U C10A A12G C18G G30U G40C, 0.
As for C10U G17A G22U, the figure is 0.74; as for A6C C13A G17C C18A C37U, 0.95; as for G2U U9A G33A A39C, 0.
As for G19A G29U G30A, the figure is 0.31; as for G5A U9G G29C U43A, 0.17.
Turning to G29C G40C C45A, the self-cleavage was determined as 0.02.
C8U C10U G22C A24G: the self-cleavage is 0.02.
As for A12U C13U C37A C46U, the figure is 0.06.
Take C18U G30U U38C A41G: the self-cleavage was found to be 0.11.
To A6G A24C C37A belongs 0.06; to C8U U28C C37G C42U, 0.01; to C10G A14U G36A C42A, 0.02.
To G27C G35C C37G G40C belongs 0.09; to G1C C18G G29U G33C, 0.01; to C23A U34A G35U G36U, 0.17.
To A12U C15U G40U belongs 0.03; to A11C A16G G17C C31A U34C C42A, 0.
Take G2U G19A G35C: the self-cleavage stood at 0.03.
As for G17A G22A A24C A26G G30A G44A, the figure is 0.01.
As for A6U C13A C23A U38G C46A, the figure is 0.02; as for A11C G29C G33A C46A, 0.
Regarding A6C A11U C13A A25G, the self-cleavage worked out at 0.04.
As for G5C A6C U38A G44C, the figure is 0.04; as for C3G U20A A26C, 0.04; as for G1U C8U U9A U20G C23U C45A, 0.17.
As for A16G G29U G33U, the figure is 0.03; as for A6C A26C U32A G44C, 0.02; as for G5C G27A C45A, 0.31.
As for G2A A6C A12C C42G, the figure is 0.04; as for G5U C18A C23A G33A G40C, 0.03; as for G2C G7A C10G C13A A16U G21U G27U, 0.03.
Consider C10A G27U A39U, for which the self-cleavage stood at 0.34.
As for G7U G29A G30U C31A, the self-cleavage was 0.11.
As for G2A C15A G22C G35C, the figure is 0.03; as for G5A C8U C10U, 0.04.
As for G17A C18U G30A C37G C45A, the figure is 0.03; as for C10U G29A G30C C37G, 0.04; as for C3G C10A A25G, 0.04.
To C10A U34G C45A belongs 0.03; to A16C A24C A25U G33C C42A, 0.03.
On to A4U G5U C10U A16G G19A U34A G40U, for which the self-cleavage stood at 0.01.
To A11G G17U U20A A26U G29A belongs 0.02; to A11G G33U U43A, 0.02.
In the case of C3A A41C G44U, the self-cleavage was 0.05.
As to G7A C13G A41G C46A, the self-cleavage is 0.12.
As to G17U A26U G30C, the self-cleavage amounted to 0.84.
As to A6U G7U C10G G21A U32C A39G C42G, the self-cleavage is 0.02.
As for U9G C10A G17C, the figure is 0.01; as for A24U G30U A41U, 0.52.
To G1A C18U A39G belongs 0.06; to C3U C10G G33U A41G, 0.01; to C10G C23U U38A C42U, 0.04.
To C3U C23A U38A C45A belongs 0.07; to U9G U20C U32C C37A U43G G44U, 0.03; to G1U C18U G36A, 0.06.
In the case of A11C A16U G27C U28C G35A, the self-cleavage was found to be 0.11.
To C3G C10U G33U C42U belongs 0.03; to A4C C10U G22U A41G U43A, 0.03; to G1C A16U G44A, 0.01.
As for C3A C15A G22A C46G, the figure is 0.16; as for G1C G2A A14U G17U G21C, 0.02.
To A4C A12C A14G C18G A25G G33A U34A belongs 0.1.
G2C C8G A24U G36U: the self-cleavage amounted to 0.02.
For C3U A14U C18U, the self-cleavage stood at 0.1.
On to G21U G27A C46U, for which the self-cleavage is 0.36.
As for C8U A26C G36U, the figure is 0.32; as for A39C G40C G44C, 0.13.
As for G30A U34G G44A, the figure is 0.07; as for G22A G27U C46A, 0.87; as for A12U C13A C23G G35C, 0.04.
Take A39G U43C C45U C46U: the self-cleavage worked out at 0.02.
To C15G C37U U43A belongs 0.
A12C U20G C23A G29A G33U: the self-cleavage was determined as 0.
As for C18G G21C G40U C45U, the figure is 0.11; as for A6U G7U C10A C23U, 0.02.
With G17C C18A G27U G30C G35C C37U, the self-cleavage was found to be 0.07.
To C10A A11U C15A G40A belongs 0.02; to G1C C31G G36U, 0.02.
As for G29U U34G G35U, the figure is 0.05.
As for G36U C37U U38G G40U, the figure is 0.02.
Take G7U G27U C31U G33C: the self-cleavage was 0.03.
To G5U C15G G44U belongs 0.04; to G21A A26U G44U, 0.49.
As for U28G G36U C37U, the figure is 0.02; as for G5U A11G C13A G19A U34C A39G G44A, 0; as for C8A A25G U28G G33C G35C C42U G44U, 0.11.
As for C13G A24U A39G C45G, the figure is 0.07.
In the case of C13A C15U C18G G33A, the self-cleavage amounted to 0.02.
Regarding C3A C15A A24U U32A C37G, the self-cleavage was 0.09.
Consider C13U U34A C45U, for which the self-cleavage was found to be 0.13.

These data come from the RNAGym collection of RNA variant scans (doi:10.7554/elife.90254).
